# Measurements: PubChem BioAssay AID686978 (National Center for Advancing Translational Sciences (NCATS), 2013)
# The whole screen tested about 420,000 compounds, of which about 64,000 (15%) were called active. Inconclusive results, whose numbers are uncertain, are shown with a selection of clear calls. Calls follow the shape of the dose curve; as a rule, active = well fitted inhibition curve with a large enough effect; inconclusive = small, poorly fitted or top-dose-only effect; inactive = flat fitted curve, though single readings scatter. No potency is given beside an inconclusive call; the fits are too rough.
# Test: qHTS for Inhibitors of human tyrosyl-DNA phosphodiesterase 1 (TDP1): qHTS in cells in absence of CPT; also: nearly all actives have a fitted effect of over 55% in size
# Conditions: DT40 Tdp1-/- hTDP1 cells, no CPT, ATP luminescence, 48 h; activity change, negative = growth inhibition: at 46.2 µM (top of the series) unless noted
# Method in brief: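 No-CPT arm: Tdp1-/-;hTDP1 DT40 cells (400/well) plus compounds, incubated ≥48 hr at 37 °C. Readout CellTiter-Glo luminescence.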
# % is scaled to controls: 0 for no effect and ±100 for the full control effect; potency is read from the fitted curve at half-maximal effect; tags tell the direction and shape of the fitted curve.
Structure (SMILES),Potency,"activity change, negative = growth inhibition"
Clc1ccc(-c2cn3c(n2)-c2ccccc2C3)cc1Cl,"inconclusive [inhibitor, single point]",
CCCCCNC(=O)C(c1ccccc1)n1c(=O)c(-c2cc3ccccc3[nH]2)nc2ccccc21 (stereo not given),"inconclusive [inhibitor, single point]",
Cn1cnc(S(=O)(=O)N2CCN(C(c3ccccc3)c3ccccc3)CC2)c1,"inconclusive [inhibitor, full curve, poor fit]",
COc1ccccc1-n1c(=O)oc2ccc(Cl)cc2c1=O,active: 16.4 µM,
Cc1nn(C)c(C)c1/C=C(\C#N)S(=O)(=O)c1ccc(F)cc1,,inactive: -15.4%
CC(=O)Nc1ccc(C(=O)Nc2nc(-c3cc(C)n(Cc4ccccc4)c3C)cs2)cc1,active: 14.6 µM,
COc1ccc(S(=O)(=O)N2CCC[C@H]2C(=O)N2CCC[C@H]2C(=O)NCc2ccccc2)cc1C,"inconclusive [inhibitor, partial curve]",
Cc1ccc(O)c(NC(=O)c2cc(-c3cccs3)on2)c1,,inactive: -25.2%
COc1cccc(-c2noc(C3CCCN(C(=O)Cc4ccccc4)C3)n2)c1 (stereo not given),active: 18.4 µM,
CCCc1nn2c(=O)cc(COC(=O)c3ccco3)nc2s1,,inactive: -17.3%
NC(=O)c1ccc(Oc2ccc3c(c2)CCC3)c([N+](=O)[O-])c1,,inactive: -28.1%
CN(C)N(Cc1ccccc1)C(=O)C(O)(c1ccccc1)c1ccccc1,active: 25.9 µM,
COc1ccc(Cl)cc1NC(=O)CN(C)Cc1cccs1,"inconclusive [inhibitor, single point]",
COc1cccc(C(=O)N(CN2CCCC2=O)c2cccc(Cl)c2)c1,"inconclusive [inhibitor, single point]",
Cc1ccc(NC(=O)COc2cccnc2[N+](=O)[O-])cc1S(=O)(=O)N1CCOCC1,"inconclusive [inhibitor, single point]",
CC(C)CNC(=S)NNC(=O)c1ccccc1OC(F)F,,inactive: -12.1%
CC1CC[C@]2(CO)CC[C@]3(C)C(=CCC4[C@@]5(C)CCC(O)C(C)(C)C5CC[C@@]43C)C2C1C (stereo not given in full),,inactive: 2.01%
O=C1NC[C@@H](CCCCN2CCN(CCc3ccc(O)cc3)C(=O)C2=O)N(CC2CCCCC2)C1=O,,inactive: -13.4%
CC(=O)Nc1c(C)nn(-c2ccccc2)c1N1CCC(C(=O)Nc2cccc(C(F)(F)F)c2)CC1,"inconclusive [inhibitor, single point]",
CCCCOc1ccccc1C1CC(=O)Nc2cc(OC)c(OC)cc21 (stereo not given),"inconclusive [inhibitor, single point]",
CCCCC(C(=O)OCC)C(N)Cc1ccc(F)cc1 (stereo not given),"inconclusive [inhibitor, single point]",
CCCCCCCCCCCCC/C=C/[C@@H](O)[C@H](CO)NC(=O)CCCCCCCCCCCCCCC,,inactive: 0.132% [at 4.12 µM]
COc1ccc(S(=O)(=O)N2CCOCC2)cc1NC(=O)CSc1nnc2n1CCCCC2,,inactive: -2.21%

Structure (SMILES),Potency,"activity change, negative = growth inhibition"
CC(C)(C)c1ccc(-c2nc(NCc3cccnc3)c3ccccc3n2)cc1,"inconclusive [inhibitor, single point]",
COc1ccccc1CC(=O)NC1CCCCCC1,,inactive: 1.1%
Cc1cccc(/C=C/c2onc(C)c2S(=O)(=O)N2CCC(C(=O)N3CCCCCC3)CC2)c1,active: 23.1 µM,
COc1ccccc1N1CC(O)=C(c2nc3ccccc3s2)C1=N,"inconclusive [inhibitor, single point]",
CCC1CN(CC(=O)NCc2n[nH]c3c2CCCCC3)Cc2cc(OC)ccc2O1 (stereo not given),"inconclusive [inhibitor, partial curve]",
Cc1c(C(=O)NCc2ccc(F)cc2)sc2nc(-c3ccc(F)cc3)cn12,"inconclusive [inhibitor, single point]",
O=S(=O)(c1ccc(Cl)cc1)N1CCC2(CC1)OCCN2S(=O)(=O)c1cccs1,active: 18.4 µM,
COc1cccc(COc2ccc(N(C)S(=O)(=O)c3ccccc3)cc2)c1,active: 16.4 µM,
CN1CCN2c3ccccc3Cc3ccccc3[C@@H]2C1,"inconclusive [inhibitor, full curve, poor fit]",
Cc1ccc(S(=O)(=O)Nc2nc(C)c(C(=O)Nc3ccccc3)s2)cc1,,inactive: -7.55%
COc1ccc(-c2cc(C(=O)N/N=C/c3cccnc3)c3ccccc3n2)c(OC)c1,"inconclusive [inhibitor, partial curve, poor fit]",
CC(C)c1cc(C(N)=O)c(NC(=O)c2cccc(COc3ccc(Cl)cc3)c2)s1,"inconclusive [inhibitor, single point]",
CN1CCN(c2ncc3nc(-c4cccs4)c(=O)n(Cc4ccc(F)cc4)c3n2)CC1,"inconclusive [inhibitor, partial curve]",
CCN(CC)c1cc2c(cc1F)c(=O)c(S(=O)(=O)c1ccccc1)cn2C,"inconclusive [inhibitor, single point]",
COc1ccc(O)c(CN2CCN(C/C=C/c3ccccc3)CC2)c1,,inactive: -28.5%
O=C(c1cccs1)N(Cc1ccco1)c1ccc(O)cc1,"inconclusive [inhibitor, single point]",
CCOc1ccc(S(=O)(=O)c2c(C(=O)c3ccccc3)cnc3cc4c(cc23)OCCO4)cc1,active: 10.3 µM,
CC(C)Sc1nc2sccc2c(=O)n1-c1ccccc1,"inconclusive [inhibitor, single point]",
COc1cc(OC)c2c(c1C(CCN1CCOCC1)c1ccc(N(C)C)cc1)OC(=O)CC2c1ccc(N(C)C)cc1 (stereo not given),"inconclusive [inhibitor, single point]",
O=S(=O)(NCC1COc2ccccc2O1)c1ccc2ccccc2c1 (stereo not given),"inconclusive [inhibitor, single point]",
Cc1onc(-c2c(Cl)cccc2Cl)c1C(=O)O/N=C(\C#N)c1ccccc1,,inactive: -20.4%
Cc1noc(Cn2c(=O)c3ccccc3n(CC(=O)Nc3ccc(C(C)C)cc3)c2=O)n1,active: 16.4 µM,
